# Data reported in PubChem BioAssay AID2451 (National Center for Advancing Translational Sciences (NCATS), 2010).
# Values joined by “and” are separate entries in the source; they are usually repeats but may differ in a detail not shown here. Equal entries are not always repeated. Out of some 290,000 compounds screened, about 2,100 (0.72%) were called active. Inconclusive results, whose numbers are uncertain, are shown with a selection of clear calls. Calls follow the shape of the dose curve; as a rule, active = well fitted inhibition curve with a large enough effect; inconclusive = small, poorly fitted or top-dose-only effect, or effect the other way; inactive = flat fitted curve, though single readings scatter. A potency beside an inconclusive call is a rough fit, not a confirmed value.
# Target: Fructose-bisphosphate aldolase (Giardia intestinalis (strain ATCC 50803 / WB clone C6)) (UniProt A8B2U2)
# Experiment: qHTS Assay for Inhibitors of Fructose-1,6-bisphosphate Aldolase from Giardia Lamblia; also: nearly all actives have a fitted effect of over 55% in size
# Settings: purified Giardia FBPA; activity, negative = inhibition: at 59.6 µM (top of the series) unless noted
# Method in brief: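 Giardia FBPA (40 nM reagent) was preincubated 10 min at RT with compound (up to 57.5 uM final), then substrate plus GAPDH/TPI/NAD/arsenate coupling system with diaphorase/resazurin was added; resorufin fluorescence (525/598 nm) was read after 20 min.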
# % is scaled to controls: 0 for no effect and ±100 for the full control effect; potency is read from the fitted curve at half-maximal effect; tags tell the direction and shape of the fitted curve.
# UniProt A8B2U2, sequence (A8B2U2 whole entry, looked up): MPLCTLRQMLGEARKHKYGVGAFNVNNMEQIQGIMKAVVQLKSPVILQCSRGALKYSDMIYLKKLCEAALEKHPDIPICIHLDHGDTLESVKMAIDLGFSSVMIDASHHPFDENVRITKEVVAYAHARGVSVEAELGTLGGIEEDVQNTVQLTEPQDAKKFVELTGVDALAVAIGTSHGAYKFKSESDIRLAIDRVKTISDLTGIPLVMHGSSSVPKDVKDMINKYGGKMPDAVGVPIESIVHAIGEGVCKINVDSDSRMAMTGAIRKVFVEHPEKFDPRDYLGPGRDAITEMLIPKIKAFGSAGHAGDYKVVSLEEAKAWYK
Compound,Potency,"activity, negative = inhibition"
Fc1cccc(Cl)c1-c1nnc2ccc3ccccc3n12,"inconclusive: 15.8 µM [inhibitor, single point]",
CCOC(=O)C(CC)Sc1ncnc2nc[nH]c12 (stereo not drawn),"inconclusive: 19.9 µM [inhibitor, partial curve]",
CC(=O)c1sc2nsc(SCCN3CCOCC3)c2c1N,"inconclusive: 15.8 µM [inhibitor, partial curve]",
Cc1ccc(-c2cc(C(F)(F)F)n3nc(C(=O)N4CCN5CCCC5C4)cc3n2)cc1 (stereo not drawn),inactive,
C=CCN1CCc2cccc3c2C1Cc1ccc(O)c(O)c1-3 (stereo not drawn),"inconclusive: 14.1 µM [inhibitor, partial curve]",
Fc1ccccc1N=C1NN=C(c2ccccc2)CS1,inactive,
O=C(CSc1nnc(Cc2cc(=O)[nH]c(=O)[nH]2)n1-c1ccc(F)cc1)N1CCCCC1,inactive,
CCNc1ccccc(-c2ccc3ccccc3n2)c1=O,"inconclusive: 5 µM [inhibitor, partial curve, poor fit]",
CCOC(=O)c1c(C)[nH]c(C)c1S(=O)(=O)N(C)CC(=O)Nc1ccccc1F,inactive,
Cc1ccc(S(=O)(=O)C(C#N)c2nc3ccccc3nc2OC(C)C)cc1 (stereo not drawn),"inconclusive: 15.8 µM [inhibitor, partial curve]",
CSc1ncc(Cl)c(C(=O)Nc2ccc(NC(C)=O)cc2)n1,inactive,
O=C(NCC(=O)N(c1cccc(F)c1)C(C(=O)NC1CCCC1)c1ccco1)c1ccco1 (stereo not drawn),inactive,
CCn1c(C)c2c(C)nnc(C)c2c1C,"inconclusive: 7.92 µM [inhibitor, partial curve]",
CC(C)OC(=O)CC1C(=O)NCCN1C(=S)NC(=O)c1cccs1 (stereo not drawn),active: 5.61 µM,
CC1CCN(S(=O)(=O)c2ccc(NC(=O)CN3CCCC3)cc2)CC1,"inconclusive: 14.1 µM [inhibitor, single point]",
CCOC(=O)COc1cc(-n2c(=S)[nH]c3ccccc3c2=O)c(Cl)cc1Cl,inactive,
CCOC(=O)Cc1csc(NS(=O)(=O)c2ccc(NC(C)=O)cc2)n1,active: 14.1 µM,
O=C(CSc1nc2ccccc2s1)Nc1ccc(C(=O)O)cc1,"inconclusive: 15.8 µM [activator, single point]",
COCC(O)CSc1nc(C)[nH]c1[N+](=O)[O-] (stereo not drawn),"inconclusive: 14.1 µM [inhibitor, partial curve]",
Cc1cccc2sc(NNC(=O)c3ccc(S(=O)(=O)N4CC(C)CC(C)C4)cc3)nc12 (stereo not drawn),"inconclusive: 15.8 µM [inhibitor, single point]",
O=C(CN1CCOCC1)Nc1ccc2c(c1)OCCO2,"inconclusive: 19.9 µM [inhibitor, partial curve]",
Cc1ccc2nc(-c3ccc(NC(=O)CNC4CC4)cc3)sc2c1,"inconclusive: 17.7 µM [inhibitor, partial curve]",
COc1ccc([N+](=O)[O-])cc1N(CC(O)CN1CCOCC1)S(=O)(=O)c1ccccc1 (stereo not drawn),inactive,
Cc1ccc(S(=O)(=O)CCNC(=O)Cc2ccc(Cl)cc2)cc1,inactive,
O=C(CSc1ncnc2c1nnn2Cc1ccccc1F)NCC1CCCO1 (stereo not drawn),inactive,

Compound,Potency,"activity, negative = inhibition"
Cc1ccccc1-c1nsc(SCC(=O)Nc2ccc3c(c2)OCO3)n1,inactive,
COc1cccc(C(=O)O/N=C(\N)c2ccc(C)cc2)c1,inactive,
O=C(CSC1=NC2(CCCCC2)N=C1c1ccccc1)Nc1ccc2c(c1)OCCO2,inactive,
CCCCC1=CC2=C(c3ccco3)C(=O)C(C)(OC(=O)c3ccc(OC)cc3)C(=O)C2=CN1CC(C)C (stereo not drawn),"inconclusive: 7.92 µM [inhibitor, single point] and inconclusive: 1.41 µM [inhibitor, single point]",
COc1ccc(C(=O)N2CCN(Cc3ccccc3C)CC2)cc1OC,"inconclusive: 15.8 µM [inhibitor, partial curve]",
COc1cc(CN2CCNC(=O)C2CC(=O)O)cc(OC)c1 (stereo not drawn),inactive,
O=C1N(Cc2cccc(Cl)c2)C[C@@H]2C[C@@H](c3c[nH]c4ccccc34)N3CCC[C@@]123,"inconclusive: 14.1 µM [inhibitor, partial curve]",
Cc1ccc(C(=O)O)cc1-c1ccc(/C=C2/NC(=O)N(c3ccccc3)C2=O)o1,"inconclusive: 15.8 µM [inhibitor, single point]",
COc1ccc(-c2cc3nc(C)cc(C)n3n2)cc1,inactive,
Cc1ccc(C)n1-c1sc2c(c1C#N)CCC(C)C2 (stereo not drawn),inactive,
CCN(CC)CCN1C(=O)C(O)=C(C(=O)c2cccs2)C1c1ccccn1 (stereo not drawn),"inconclusive: 19.9 µM [inhibitor, partial curve]",
C=CCN=C1N[C@@H](c2cccc(C(F)(F)F)c2)C(C(=O)OC)=C(C)N1CC,active: 15.8 µM,
Cc1nnc(N/N=C/c2ccco2)n1N,active: 19.9 µM,
CCOc1ccc(S(=O)(=O)Nc2cc(SCC(=O)O)c(O)c3ccccc23)cc1,active: 6.31 µM,
COC(=O)C1=C(O)/C(=C\c2ccc(CNS(=O)(=O)c3ccccc3)o2)N=C1C,"inconclusive: 19.9 µM [inhibitor, partial curve]",
Cc1ccc(S(=O)(=O)N2CCN(C(=O)c3cc4c(C)nn(-c5ccccc5C)c4s3)CC2)cc1,inactive,
C=CC(C1=CC(=O)C(OC)=CC1=O)c1ccccc1 (stereo not drawn),active: 19.9 µM,
CCOC(=O)OCC1OC(C#Cc2ccccc2)C=CC1OC(=O)OCC (stereo not drawn),,inactive: -2.46% [at 12.9 µM]
N#Cc1ccsc1NC(=O)CSc1nnc(-c2ccccc2)o1,"inconclusive: 17.7 µM [inhibitor, single point]",
NNC(=O)c1sc2cc(C(F)(F)F)cnc2c1-c1cccnc1,"inconclusive: 15.8 µM [inhibitor, partial curve]",
COC(=O)c1cc2ccccc2c(-c2c(OC)c(C(=O)OC)cc3ccccc23)c1OC,"inconclusive: 19.9 µM [inhibitor, single point]",
CN1N=C(C(C)(C)C)CSC1=Nc1ccccc1,inactive,
Cn1nc([N+](=O)[O-])c(C(C#N)c2ccccn2)c(Cl)c1=O (stereo not drawn),"inconclusive: 19.9 µM [inhibitor, partial curve]",
C/C(=N\NC(=O)c1ccccc1)c1c(O)n(Cc2ccccc2)c(=O)[nH]c1=O,"inconclusive: 15.8 µM [activator, partial curve]",
COc1ccccc1/C=N/Nc1nc(C)cc(C)n1,"inconclusive: 8.89 µM [inhibitor, partial curve]",

Compound,Potency,"activity, negative = inhibition"
COc1ccc(NC(=S)NC(=O)c2ccccc2)cn1,"inconclusive: 7.94 µM [inhibitor, partial curve]",
CS(=O)(=O)c1ccc2nc(NC(=O)Nc3ccc(Cl)cc3)sc2c1,inactive,
CC(C)N(Cc1c(O)ccc2c(=O)c(-c3ccc(Cl)cc3)coc12)C(C)C,,inconclusive: 42.4% [activator]
CC(C)(C)c1ccc(S(=O)(=O)/C=C\C#N)cc1,"inconclusive: 25.1 µM [inhibitor, partial curve]",
CCCOc1ccc(/C(O)=C2/C(=O)C(=O)N(CCCN3CCOCC3)C2c2ccncc2)cc1 (stereo not drawn),"inconclusive: 19.9 µM [inhibitor, partial curve]",
Cc1nnc(SCC2=C(C(=O)O)N3C(=O)C(NC(=O)c4cc(F)c(F)cc4Cl)C3SC2)s1 (stereo not drawn),active: 19.9 µM,
C/C(=N\NC(=O)c1ccccc1F)c1ccccn1,"inconclusive: 39.8 µM [inhibitor, single point]",
CCCc1cc(=O)oc2c(CNc3ccc(OCC)cc3)c(O)ccc12,"inconclusive: 14.1 µM [inhibitor, partial curve]",
COC(=O)c1cc(=O)c(O)c2c(O)c(O)ccc2c1,active: 5 µM,
CN(C)CC[C@H](c1ccc(Br)cc1)c1ccccn1,inactive,
N#Cc1ccc2ccn(CC(=O)N3CCCc4ccccc43)c2c1,"inconclusive: 19.9 µM [inhibitor, partial curve]",
CCOC(=O)Cn1cc(/C=C(/C#N)C(=O)NC(C)C)c2ccccc21,inactive,
CCn1cc(/C=C/c2cc[n+](C)cc2)c2ccccc21,"inconclusive: 35.5 µM [inhibitor, partial curve]",
CC1CCCCN1S(=O)(=O)c1ccc(C(=O)Nc2nnc(-c3ccco3)o2)cc1 (stereo not drawn),"inconclusive: 28.2 µM [inhibitor, single point]",
O=[N+]([O-])c1ccc(Sc2cccc3cccnc23)c([N+](=O)[O-])c1,"inconclusive: 17.7 µM [inhibitor, partial curve]",
CCc1ccc(-c2cc(C(=O)N/N=C/c3ccccn3)[nH]n2)cc1,"inconclusive: 17.7 µM [inhibitor, single point]",
O=C(c1cccs1)N1CCN(Cc2ccccc2[N+](=O)[O-])CC1,"inconclusive: 15.8 µM [inhibitor, single point]",
O=C(CN1CCc2ccccc2C1)Nc1ccccc1C(F)(F)F,"inconclusive: 22.4 µM [inhibitor, partial curve]",
O=C(O)COc1ccc(/C=N/NC(=O)c2ccc(-c3csc(Nc4ccc(Cl)cc4)n3)cc2)cc1,"inconclusive: 15.8 µM [inhibitor, partial curve]",
O=C(Nc1ccccc1)N1CC2(CCN(C(=O)c3cccc(F)c3)CC2)C1,inactive,
CC(=O)C1=C(O)C(=O)N(C)C1c1ccccc1[N+](=O)[O-] (stereo not drawn),"inconclusive: 17.7 µM [inhibitor, partial curve]",
COc1ccccc1N1CCN(Cc2cc(OC)c3c(c2)OCO3)CC1,"inconclusive: 17.8 µM [inhibitor, partial curve]",
CCCc1nnc(NC(=O)CN2CCN(C)CC2)s1,"inconclusive: 10 µM [inhibitor, partial curve]",
